From the supplement of paper PMC8728848
The other results are listed elsewhere or left out.

What was measured:
Assay in all cases: glycan array binding signal (z-score within array); higher = stronger binding
Settings in all cases: glycan notation: IUPAC condensed, linker removed
Gal(b1-2)Gal = target: Gal(b1-2)Gal
Outline: (§1)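 The binding signal is a Z-score computed within each array and averaged over linkers. Arrays of the same protein sequence at different concentrations or buffers were also averaged together. Data originate from 3228 arrays in the Consortium for Functional Glycomics database, kept only where the protein sequence was available.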

Gal(b1-3)Gal = target: Gal(b1-3)Gal
Outline: as §1

Gal(b1-3)Gal(b1-4)GlcNAc = target: Gal(b1-3)Gal(b1-4)GlcNAc
Outline: as §1

Gal(b1-3)GalNAc = target: Gal(b1-3)GalNAc
Outline: as §1

[1] = target: Gal(b1-3)GalNAc(a1-3)[Fuc(a1-2)]Gal(b1-4)Glc
Outline: as §1

[2] = target: Gal(b1-3)GalNAc(a1-3)[Fuc(a1-2)]Gal(b1-4)GlcNAc
Outline: as §1

Gal(b1-3)GalNAc(b1-3)Gal = target: Gal(b1-3)GalNAc(b1-3)Gal
Outline: as §1

[3] = target: Gal(b1-3)GalNAc(b1-3)Gal(a1-4)Gal(b1-4)Glc
Outline: as §1

[4] = target: Gal(b1-3)GalNAc(b1-4)Gal(b1-4)Glc
Outline: as §1

[5] = target: Gal(b1-3)GalNAc(b1-4)[Neu5Ac(a2-3)]Gal(b1-4)Glc
Outline: as §1

Gal(b1-3)GlcNAc = target: Gal(b1-3)GlcNAc
Outline: as §1

[6] = target: Gal(b1-3)GlcNAc(a1-3)Gal(b1-4)GlcNAc
Outline: as §1

[7] = target: Gal(b1-3)GlcNAc(a1-6)Gal(b1-4)GlcNAc
Outline: as §1

Gal(b1-3)GlcNAc(b1-2)Man = target: Gal(b1-3)GlcNAc(b1-2)Man
Outline: as §1

[8] = target: Gal(b1-3)GlcNAc(b1-2)Man(a1-3)[Gal(b1-3)GlcNAc(b1-2)Man(a1-6)]Man(b1-4)GlcNAc(b1-4)GlcNAc
Outline: as §1

[9] = target: Gal(b1-3)GlcNAc(b1-2)Man(a1-3)[Gal(b1-3)GlcNAc(b1-2)Man(a1-6)]Man(b1-4)GlcNAc(b1-4)[Fuc(a1-6)]GlcNAc
Outline: as §1

[10] = target: Gal(b1-3)GlcNAc(b1-2)Man(a1-3)[GlcNAc(b1-4)][Gal(b1-3)GlcNAc(b1-2)Man(a1-6)]Man(b1-4)GlcNAc(b1-4)GlcNAc
Outline: as §1

[11] = target: Gal(b1-3)GlcNAc(b1-2)[Gal(b1-3)GlcNAc(b1-6)]Man(a1-6)[Gal(b1-3)GlcNAc(b1-2)Man(a1-3)]Man(b1-4)GlcNAc(b1-4)GlcNAc
Outline: as §1

[12] = target: Gal(b1-3)GlcNAc(b1-3)Gal(b1-3)GlcNAc
Outline: as §1

[13] = target: Gal(b1-3)GlcNAc(b1-3)Gal(b1-4)Glc
Outline: as §1

[14] = target: Gal(b1-3)GlcNAc(b1-3)Gal(b1-4)GlcNAc
Outline: as §1

[15] = target: Gal(b1-3)GlcNAc(b1-3)Gal(b1-4)GlcNAc(b1-2)Man(a1-3)[Gal(b1-3)GlcNAc(b1-3)Gal(b1-4)GlcNAc(b1-2)Man(a1-6)]Man(b1-4)GlcNAc(b1-4)GlcNAc
Outline: as §1

[16] = target: Gal(b1-3)GlcNAc(b1-3)Gal(b1-4)GlcNAc(b1-2)[Gal(b1-3)GlcNAc(b1-3)Gal(b1-4)GlcNAc(b1-6)]Man(a1-6)[Gal(b1-3)GlcNAc(b1-3)Gal(b1-4)GlcNAc(b1-2)Man(a1-3)]Man(b1-4)GlcNAc(b1-4)[Fuc(a1-6)]GlcNAc
Outline: as §1

[17] = target: Gal(b1-3)GlcNAc(b1-3)Gal(b1-4)GlcNAc(b1-3)Gal(b1-4)GlcNAc(b1-2)[Gal(b1-3)GlcNAc(b1-3)Gal(b1-4)GlcNAc(b1-3)Gal(b1-4)GlcNAc(b1-6)]Man(a1-6)[Gal(b1-3)GlcNAc(b1-3)Gal(b1-4)GlcNAc(b1-3)Gal(b1-4)GlcNAc(b1-2)Man(a1-3)]Man(b1-4)GlcNAc(b1-4)[Fuc(a1-6)]GlcNAc
Outline: as §1

[18] = target: Gal(b1-3)GlcNAc(b1-3)Gal(b1-4)GlcNAc(b1-6)[Gal(b1-3)GlcNAc(b1-3)]Gal(b1-4)Glc
Outline: as §1

[19] = target: Gal(b1-3)GlcNAc(b1-3)Gal(b1-4)[Fuc(a1-3)]GlcNAc
Outline: as §1

[20] = target: Gal(b1-3)GlcNAc(b1-3)Gal(b1-4)[Fuc(a1-3)]GlcNAc(b1-6)[Gal(b1-3)GlcNAc(b1-3)]Gal(b1-4)Glc
Outline: as §1

[21] = target: Gal(b1-3)GlcNAc(b1-3)GalNAc
Outline: as §1

[22] = target: Gal(b1-3)GlcNAc(b1-6)Gal(b1-4)GlcNAc
Outline: as §1

[23] = target: Gal(b1-3)GlcNAc(b1-6)GalNAc
Outline: as §1

[24] = target: Gal(b1-3)GlcNAc(b1-6)[Gal(b1-3)]GalNAc
Outline: as §1

Gal(b1-3)GlcNAc6S = target: Gal(b1-3)GlcNAc6S
Outline: as §1

[25] = target: Gal(b1-3)[Fuc(a1-4)]GlcNAc
Outline: as §1

[26] = target: Gal(b1-3)[Fuc(a1-4)]GlcNAc(b1-2)Man
Outline: as §1

[27] = target: Gal(b1-3)[Fuc(a1-4)]GlcNAc(b1-2)Man(a1-3)[Gal(b1-3)[Fuc(a1-4)]GlcNAc(b1-2)Man(a1-6)]Man(b1-4)GlcNAc(b1-4)[Fuc(a1-6)]GlcNAc
Outline: as §1

[28] = target: Gal(b1-3)[Fuc(a1-4)]GlcNAc(b1-3)Gal(b1-3)[Fuc(a1-4)]GlcNAc
Outline: as §1

[29] = target: Gal(b1-3)[Fuc(a1-4)]GlcNAc(b1-3)Gal(b1-4)[Fuc(a1-3)]GlcNAc
Outline: as §1

[30] = target: Gal(b1-3)[Fuc(a1-4)]GlcNAc(b1-6)GalNAc
Outline: as §1

[31] = target: Gal(b1-3)[GlcNAc(b1-6)]GalNAc
Outline: as §1

[32] = target: Gal(b1-3)[Neu5Ac(a2-6)]GalNAc
Outline: as §1

[33] = target: Gal(b1-3)[Neu5Ac(a2-6)]GlcNAc(b1-4)Gal(b1-4)Glc
Outline: as §1

[34] = target: Gal(b1-3)[Neu5Ac(b2-6)]GalNAc
Outline: as §1

Gal(b1-4)Gal = target: Gal(b1-4)Gal
Outline: as §1

[35] = target: Gal(b1-4)GalNAc(a1-3)[Fuc(a1-2)]Gal(b1-4)GlcNAc
Outline: as §1

[36] = target: Gal(b1-4)GalNAc(b1-3)[Fuc(a1-2)]Gal(b1-4)GlcNAc
Outline: as §1

B1: PX9937B-bvu-524-33-524 (Bacteroides vulgatus) (protein)
chain: GTAYWKNPDQFTAFNTGLHALLREKSYNFFLLGEPRADIYGDNPIGGEASQGMERLPFNTINKENVGISNYGDMYKIINQINQMIAKTTETTILTEATQNYYLGEAYGMRAYLYFHLLRSWGDVVLYLDYTEGQNLDLSNITKGVSPATEVMEQIKKDIQASENAFGSDYSFKLGRHFWSAAATQMLKGEAYLWSGRQMNGGNSDYTIAKNAFENVKKADVGLVTSSFKDIFSFENKKNKEMIFTIHNGKDEYEMWGGYYRMRLIPAQDKMVKIYCDENGNSFVGTPDAQLNGLTQLQVRREFYFKGFRNNDTRWTTSLKAVYKKDAQGVVSYFGPITYKFQGTMLEGGSTRSFLDDFPIYRYADCLLQLAMAKVLLGEDPTEEINAVRERAYGSKYFNEHKAEIAYPNDNDPEFYTDNKWMKPDNAGALEAILKERLREFMFEGKRWYDIRLLGWDYVHQYSSAEQSRLLWPIDAGTLTNNSALKQTPGYE
In the case of B1, the “glycan array binding signal (z-score)” value (Gal(b1-2)Gal) is reported as -0.37, the “glycan array binding signal (z-score)” value (Gal(b1-3)Gal) is reported as -0.297 and the “glycan array binding signal (z-score)” value (Gal(b1-3)Gal(b1-4)GlcNAc) is reported as -0.504. For the same binder, the “glycan array binding signal (z-score)” value (Gal(b1-3)GalNAc) was 0.537, the “glycan array binding signal (z-score)” value [1] was -0.478 and the “glycan array binding signal (z-score)” value [2] was -0.301. The “glycan array binding signal (z-score)” value (Gal(b1-3)GalNAc(b1-3)Gal) was 0.74, the “glycan array binding signal (z-score)” value [3] was -0.211 and the “glycan array binding signal (z-score)” value [4] was -0.096. The “glycan array binding signal (z-score)” value [5] was -0.419, the “glycan array binding signal (z-score)” value (Gal(b1-3)GlcNAc) was -0.32 and the “glycan array binding signal (z-score)” value [6] was -0.471. For the same binder, the “glycan array binding signal (z-score)” value [7] was -0.305, the “glycan array binding signal (z-score)” value (Gal(b1-3)GlcNAc(b1-2)Man) was -0.213 and the “glycan array binding signal (z-score)” value [8] was -0.057. The “glycan array binding signal (z-score)” value [9] was 0.088, the “glycan array binding signal (z-score)” value [10] was -0.031 and the “glycan array binding signal (z-score)” value [11] was 0.584. The “glycan array binding signal (z-score)” value [12] was 1.34, the “glycan array binding signal (z-score)” value [13] was -0.333 and the “glycan array binding signal (z-score)” value [14] was -0.228. For the same binder, the “glycan array binding signal (z-score)” value [15] was 12.8, the “glycan array binding signal (z-score)” value [16] was 0.885 and the “glycan array binding signal (z-score)” value [17] was 1.01. The “glycan array binding signal (z-score)” value [18] was -0.185, the “glycan array binding signal (z-score)” value [19] was -0.351 and the “glycan array binding signal (z-score)” value [20] was -0.385. For the same binder, the “glycan array binding signal (z-score)” value [21] was -0.379, the “glycan array binding signal (z-score)” value [22] was -0.085 and the “glycan array binding signal (z-score)” value [23] was -0.198. For the same binder, the “glycan array binding signal (z-score)” value [24] was 7.68, the “glycan array binding signal (z-score)” value (Gal(b1-3)GlcNAc6S) was -0.182 and the “glycan array binding signal (z-score)” value [25] was -0.342. For the same binder, the “glycan array binding signal (z-score)” value [26] was -0.215, the “glycan array binding signal (z-score)” value [27] was 0.238 and the “glycan array binding signal (z-score)” value [28] was -0.336. The “glycan array binding signal (z-score)” value [29] was -0.109, the “glycan array binding signal (z-score)” value [30] was -0.019 and the “glycan array binding signal (z-score)” value [31] was -0.011. For the same binder, the “glycan array binding signal (z-score)” value [32] was -0.391, the “glycan array binding signal (z-score)” value [33] was -0.031 and the “glycan array binding signal (z-score)” value [34] was -0.496. The “glycan array binding signal (z-score)” value (Gal(b1-4)Gal) was -0.616, the “glycan array binding signal (z-score)” value [35] was -0.508 and the “glycan array binding signal (z-score)” value [36] was -0.268.
